# Results published in the supplement of paper PMC3334620.
# Over roughly 33,000 sequences, “E-score (-0.5 to 0.5)” has its median near -0.012; the highest 2% begin near 0.27. Some of the results follow.
# Molecular target: T1, Vhr1 (UniProt P40522)
# T1 sequence: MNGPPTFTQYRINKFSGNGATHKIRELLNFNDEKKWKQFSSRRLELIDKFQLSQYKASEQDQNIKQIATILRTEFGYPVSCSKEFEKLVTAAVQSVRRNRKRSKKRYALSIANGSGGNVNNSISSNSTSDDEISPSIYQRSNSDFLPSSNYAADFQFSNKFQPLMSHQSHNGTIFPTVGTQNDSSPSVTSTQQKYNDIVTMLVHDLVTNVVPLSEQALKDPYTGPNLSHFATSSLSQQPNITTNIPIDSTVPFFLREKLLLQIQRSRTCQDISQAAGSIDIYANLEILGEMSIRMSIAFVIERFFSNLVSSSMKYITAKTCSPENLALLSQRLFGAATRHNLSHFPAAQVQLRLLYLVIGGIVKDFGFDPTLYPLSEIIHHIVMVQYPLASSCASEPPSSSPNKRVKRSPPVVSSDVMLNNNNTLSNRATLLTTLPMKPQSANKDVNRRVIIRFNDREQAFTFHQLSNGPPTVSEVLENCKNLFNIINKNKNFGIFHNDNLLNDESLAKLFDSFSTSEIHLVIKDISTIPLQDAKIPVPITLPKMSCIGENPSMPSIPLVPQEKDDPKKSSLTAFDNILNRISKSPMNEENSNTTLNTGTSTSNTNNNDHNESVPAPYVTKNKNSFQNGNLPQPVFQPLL
# Experiment: PBM E-score (8-mer binding enrichment) (E-score (-0.5 to 0.5)); higher = stronger / more preferred TF binding; most listed sequences are background and not binding sites
# Details: protein concentration: 200 nM; construct: GST-full length
# In short: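 PURExpress in vitro transcription/translation supplied GST-tagged yeast transcription factors, either full-length or DNA-binding domain. Applied at about 100-200 nM to universal all-10-mer Agilent arrays double-stranded by primer extension, the bound protein was detected with fluorescent anti-GST. E-scores, modified Wilcoxon-Mann-Whitney statistics, were given by the Universal PBM Analysis Suite to ungapped eight-base words pooled with their reverse complements after masliner normalisation.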
row,Sequence,PBM E-score
1,CGGTTTCA,-0.0806
2,CAAGGTGG,-0.00342
3,CACAACGA,0.152
4,CAGTGCCG,0.00143
5,GCAGATTA,0.0608
6,AATTATTC,-0.0201
7,CGGGGTAG,0.0237
8,AGCTAAGG,-0.398
9,ACCACCAC,0.11
10,AGAAATTC,-0.218
11,AAATCGCA,0.0184
12,GGAGAACA,-0.207
13,CAAACCTG,0.0222
14,CTAGCAAG,-0.00438
15,CAGAGAGA,-0.0432
16,ATAACTGG,0.0653
17,GAAGGAGA,-0.121
18,AAATCCAA,-0.187
19,ATGGAGGA,-0.178
20,AGGGCGCA,-0.15
21,CTGAGCGA,0.00953
22,GAGGCCTA,-0.192

row,Sequence,PBM E-score
1,CACGTATC,0.0903
2,CAGGGTCA,0.00801
3,ACAATCCG,-0.0094
4,GGTAAAAC,-0.133
5,GAGTCAGA,0.447
6,AACTCCGA,0.115
7,ACTAACAG,0.215
8,CCAATTAA,0.0339
9,AAAAACGG,-0.0925
10,AGTGTTAA,0.0169
11,AGAGGAAA,-0.174
12,CTGTAGAA,-0.0903
13,AGGACAAT,-0.13
14,ATGCATTA,0.116
15,GATAGCAA,0.232
16,ACTGAGCC,0.219
17,CCGTTATA,-0.106
18,ACACAGAG,0.074
19,AGTCTGAA,-0.0023
20,ACGCCTTG,-0.0936
21,AAAGCTTT,-0.268
22,AAAACAGT,0.129

row,Sequence,PBM E-score
1,ACAGCCCG,-0.0318
2,ATAGTCTC,0.228
3,ACTCAGAC,0.194
4,AGTACGGA,0.173
5,CAATAAAA,-0.0423
6,CCGGCTGC,0.194
7,AATCTCTG,-0.00409
8,AGAGAGAA,-0.153
9,AAAAGGCC,-0.133
10,CTGATGGA,0.0738
11,GGACAAAC,-0.062
12,ATCAATGC,0.0623
13,AACATCCA,0.1
14,ATAGCCAG,-0.163
15,GAAAAGGA,-0.152
16,AATAACAC,0.256
17,GACCAAGC,-0.053
18,AAACCCAG,0.00438
19,ACATCAAC,0.136
20,CCACCAAG,-0.0323
21,ATGGAAAA,-0.152
22,ACCTCCAA,-0.0631

row,Sequence,PBM E-score
1,ACGGGTCA,-0.077
2,CCTGATCG,0.0235
3,TCCTGCCA,-0.156
4,GAGCTAAA,-0.197
5,AAATTGAT,-0.0358
6,ATTTGTGA,0.0868
7,AGGGACCT,-0.161
8,ATGATCTG,0.0935
9,AAATACAT,-0.011
10,ACAACTGC,-0.0534
11,CCAAAGTA,0.0574
12,AGGCTGAG,-0.0574
13,CAAACCAC,0.0402
14,ACATCAAT,0.149
15,GAAGTTAA,-0.253
16,CAACATCC,0.044
17,CGACAAGC,0.0866
18,CGCTGTGC,0.0456
19,CCGGGAGC,-0.0514
20,GGATAACA,-0.101
